Whole data set: some 33,000 sequences, median “E-score (-0.5 to 0.5)” near -0.016, cut for the highest 2% near 0.32. Some of the results follow.
Molecular target: T1, Stp1 (UniProt B3LFK1)
T1 sequence: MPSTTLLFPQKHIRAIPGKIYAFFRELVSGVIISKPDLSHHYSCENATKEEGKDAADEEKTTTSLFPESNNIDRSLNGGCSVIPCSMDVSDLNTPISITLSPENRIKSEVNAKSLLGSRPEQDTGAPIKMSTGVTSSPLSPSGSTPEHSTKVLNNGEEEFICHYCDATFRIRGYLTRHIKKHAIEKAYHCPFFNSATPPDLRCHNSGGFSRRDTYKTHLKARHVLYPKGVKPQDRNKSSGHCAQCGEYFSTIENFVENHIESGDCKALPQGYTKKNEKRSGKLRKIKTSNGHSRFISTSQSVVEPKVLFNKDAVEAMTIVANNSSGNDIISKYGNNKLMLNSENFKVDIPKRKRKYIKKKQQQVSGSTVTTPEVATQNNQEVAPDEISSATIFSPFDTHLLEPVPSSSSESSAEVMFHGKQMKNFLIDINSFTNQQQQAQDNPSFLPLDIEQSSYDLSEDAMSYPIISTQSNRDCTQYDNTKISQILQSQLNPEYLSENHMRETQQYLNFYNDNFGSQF
Test: PBM E-score (8-mer binding enrichment) (E-score (-0.5 to 0.5)); higher = stronger / more preferred TF binding; most listed sequences are background and not binding sites
Conditions: protein concentration: 200 nM; construct: GST-full length
Outline: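 Using PURExpress in vitro transcription/translation, GST-tagged yeast transcription factors were made in full-length or DNA-binding-domain form. These were applied at about 100-200 nM to double-stranded universal all-10-mer Agilent arrays, and bound protein was detected with fluorescent anti-GST. Scans were normalised with masliner before the Universal PBM Analysis Suite assigned E-scores to ungapped eight-base words pooled with their reverse complements.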

Sequence | PBM E-score
GCCGTTCA | 0.441
GCGACGAC | -0.027
AGAGTGGA | -0.0108
GAACGCGC | 0.185
AAAGCAGC | 0.123
CTCATCGA | -0.0651
ACTACCCG | -0.175
CATGATTA | 0.171
AACGCCAC | 0.245
CAAAGACG | 0.0347
CTACTAAC | 0.0989
ATGGGGAC | -0.205
ACCTCTCA | -0.106
GCCGCCGC | 0.424
ATGCCGAC | 0.0658
GGCCAACA | -0.109
ACACAGAT | 0.082
CCCAGCGA | -0.245
ACGAGTTC | -0.0708
CTACCTTC | -0.105
AGACGGTG | -0.174
CAGCAATG | -0.194
CAAGACAG | -0.19
ACCCGAGC | -0.0235
TGTATCAA | 0.119

Sequence | PBM E-score
AGAACTAT | 0.00711
GAGCTATA | -0.237
CGCCTCCG | -0.0266
AGTTATCA | -0.0234
ATTCTCTG | -0.0624
CGGGAAGA | 0.0988
ATGTTATC | 0.0553
ACAAACTG | -0.167
AGGCGAGG | 0.0357
GGTGTCAC | -0.0371
CTACTGAC | -0.121
ATACCGGG | -0.331
AGTGCTGG | -0.187
GCCAGACA | -0.0817
ATTCAAAT | 0.0748
CTCGCTAA | 0.0204
AGATCGCT | -0.177
TCGACCCA | -0.0414
ATGCATGC | 0.0414
AACGGAAC | 0.164
GACTTGCA | 0.00352
AGCAATAA | -0.127
AGGCAAAT | 0.19
AAAAACAG | 0.0457
ACCCCGCA | 0.0618

Sequence | PBM E-score
AGAGTACA | 0.04
CCTGTTGA | 0.0406
AGACACCA | 0.0272
ATTGGCAC | -0.0493
GATACGGA | 0.285
CTACGGAC | -0.191
GAGCGTTA | 0.0818
GCAAGCCA | -0.0399
GAATATGC | 0.0541
TAAGATCA | 0.0196
AGTTGTAT | 0.136
ATTACGGG | -0.199
ATCGTGCG | 0.233
CGCCTAAG | -0.0196
TCCACAGA | 0.0917
GAACTCCA | -0.0707
CGAACTGA | -0.0172
CGCCACTA | -0.0796
CGGAGACG | 0.0667
AATTATGA | 0.213
GCAGATAA | -0.0115
CCAAGTCG | -0.163
GAGACAGC | -0.0299
CCCACCTC | -0.312
AGCTTACG | -0.0814

Sequence | PBM E-score
TGCCCGCA | -0.00812
CGAAGTCC | -0.168
ATATACGC | -0.00234
GACCCTCA | -0.406
GTATAAGA | 0.0837
GCCGCTGA | 0.118
AATGCTGA | -0.0533
AAATGACT | -0.0516
GCAGGTTA | -0.0966
AAACACAT | 0.117
ATCTGCTC | -0.272
AGGGCCCT | -0.229
TACTGCTA | 0.102
CCCAATAA | 0.0447
ACGAGGGG | -0.254
GCGTTGAC | 0.0699
AGAATAGC | 0.0792
TGGAGCAA | 0.108
ATCCTCGG | 0.00855
AGTCGTAC | 0.0145
ATCAGACG | 0.149
ACTGCGGG | -0.153
AGCAAGGA | -0.283
ACAGGTAG | -0.126
AATGTGAC | 0.00474

Sequence | PBM E-score
GAGCGGAA | 0.141
AGATCCAC | 0.133
AGGACTAA | 0.126
CACGAGGG | -0.253
AGCCATTG | 0.0384
AAAGTCAT | -0.148
AACAACAA | 0.129
CAACGGCC | 0.173
AAGTGTAA | -0.131
ACTCACTG | -0.0685
CAAGTGGG | -0.0429
CACCCGTC | 0.0534
AAACGCGC | 0.0957
CGTGTGCA | 0.131
CTCCGCGC | 0.227
AGGGTCTC | -0.294
CTGCATGC | 0.12
AATAGCCA | 0.00269
AATTAATC | 0.0567
GTTGCAAA | 0.152
CCGACTAA | -0.0857
TCTCGTCA | -0.0502
ATCTATGC | 0.0358
GATCTCAC | -0.126
AAGATCAA | 0.0974

Sequence | PBM E-score
GACACTAA | 0.11
GAGAACTC | -0.154
AAACGCAC | 0.0916
ATCGTACG | 0.186
AACAGCCC | -0.066
CGCGATAG | 0.108
AGTGCCTC | 0.347
TCTGGAAA | 0.086
AGAGAGTA | -0.00773
GCTTATAC | -0.121
CAATGGGC | -0.0628
CCCCTCGA | -0.0768
CCCAGGTA | -0.348
ACGATTCG | 0.113
GGCTTAAC | -0.0345
ATGAGCGG | 0.141
CGTGGAGA | -0.0303
AAGGGATG | -0.316
TCCACCGA | -0.0587
CGCTGCTA | -0.17
GTTGGTAA | 0.173
ACGTCCAA | 0.00531
GAGGCAAC | 0.14
ACCATAAG | 0.017
ATATCTGA | 0.0274

Sequence | PBM E-score
AGACGACA | -0.166
ATGCCGCA | 0.468
ACCTGGAA | 0.0178
CATTCCCA | -0.159
GAGATTGA | 0.0645
CGCACGTA | 0.0928
ACGCCCCC | -0.181
CCCAGCTA | -0.22
GCTCATCC | -0.259
AAACCGCC | 0.123
GACCAAGA | -0.157
CAGACGTA | -0.0614
CAGGGATA | -0.0566
TTCACAAA | 0.0654
GTTGAAGA | -0.0498
CTGCGGTA | 0.0752
ACCATTTA | 0.136
CCAATGCG | -0.0847
GAATATTA | 0.162
GGGCGTAC | -0.134
TTACCTAA | 0.0938
AGGGACAG | -0.282
